Measured values: the supplement of paper PMC3334620
Whole data set: some 33,000 sequences, median “E-score (-0.5 to 0.5)” near -0.032, cut for the highest 2% near 0.36. The list shows a part of the results.

target: T1, Sko1 (UniProt Q02100); experiment: PBM E-score (8-mer binding enrichment) (E-score (-0.5 to 0.5)); higher = stronger / more preferred TF binding; most listed sequences are background and not binding sites; settings: protein concentration: 200 nM; construct: GST-full length
T1 sequence: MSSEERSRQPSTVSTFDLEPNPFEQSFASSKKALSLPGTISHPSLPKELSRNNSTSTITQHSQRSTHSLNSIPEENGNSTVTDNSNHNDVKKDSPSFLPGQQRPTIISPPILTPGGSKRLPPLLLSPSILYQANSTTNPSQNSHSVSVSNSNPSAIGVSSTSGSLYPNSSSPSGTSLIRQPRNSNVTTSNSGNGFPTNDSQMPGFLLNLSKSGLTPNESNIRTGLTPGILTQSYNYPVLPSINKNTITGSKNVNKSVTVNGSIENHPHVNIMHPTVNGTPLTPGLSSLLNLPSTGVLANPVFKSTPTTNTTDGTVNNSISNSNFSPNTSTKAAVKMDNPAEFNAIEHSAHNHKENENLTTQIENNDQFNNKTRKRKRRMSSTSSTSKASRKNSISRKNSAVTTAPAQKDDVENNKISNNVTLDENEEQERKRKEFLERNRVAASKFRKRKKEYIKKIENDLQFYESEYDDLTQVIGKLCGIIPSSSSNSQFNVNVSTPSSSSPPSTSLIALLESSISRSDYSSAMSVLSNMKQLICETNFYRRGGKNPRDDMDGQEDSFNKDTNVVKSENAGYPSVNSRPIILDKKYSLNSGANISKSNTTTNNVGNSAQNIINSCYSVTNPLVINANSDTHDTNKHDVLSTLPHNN
Summary of the method: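 GST-tagged yeast TFs (full-length or DNA-binding domain) were made by PURExpress in vitro transcription/translation and applied at about 100-200 nM to universal all-10-mer Agilent arrays. The arrays were made double-stranded by primer extension, on fresh or once-stripped slides. Bound protein was detected with fluorescent anti-GST, and scans were normalised with masliner. Each ungapped eight-base word, pooled with its reverse complement, received an E-score (modified Wilcoxon-Mann-Whitney statistic) from the Universal PBM Analysis Suite.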

Row | Sequence | PBM E-score
1 | AGATCGGC | -0.262
2 | AGATGTAG | 0.0176
3 | CTTTTTGC | -0.0988
4 | AGTCACAC | -0.0301
5 | TACTGATA | 0.0497
6 | GCGCGTAA | 0.336
7 | ATTTAGAC | 0.162
8 | AAAGAACC | -0.0929
9 | AAAGGCCT | -0.202
10 | GCAGCGTA | -0.0487
11 | AACTTTCA | 0.248
12 | GCTCTCCA | -0.272
13 | CTGACCGA | -0.257
14 | ACGGAGAC | -0.102
15 | GCTAGCGA | -0.0668
16 | ACAAAGCG | -0.00371
17 | GATTAACA | 0.218
18 | ACCGAACC | -0.372
19 | ATGCTAGA | 0.0343
20 | GGCGTATA | 0.148
21 | AAGTTATA | 0.0874
22 | ACAGCCGT | -0.112

Row | Sequence | PBM E-score
23 | CGTAGGAA | 0.158
24 | AGTTTCGA | -0.055
25 | CCATTGGC | -0.297
26 | ATTAGCAG | -0.282
27 | ATTACTAC | 0.275
28 | TCGCGCCA | -0.0532
29 | TCATTAGA | 0.189
30 | AGACCTGG | -0.199
31 | CGGCTCGA | -0.0924
32 | ATGGATGG | -0.249
33 | ATTACCGG | -0.138
34 | CATCCTGG | -0.0995
35 | TCTAGTAA | 0.13
36 | ACTCGGGC | -0.195
37 | GATGCACA | 0.081
38 | GTTGTCGA | 0.0522
39 | ATTTCCCC | -0.102
40 | AGCACATA | 0.0436
41 | ATGATGTA | 0.459
42 | ATGCTTTC | 0.135
43 | ACGGACCG | -0.37
44 | GAACTTGA | 0.106

Row | Sequence | PBM E-score
45 | GGTATTTA | 0.0513
46 | AAAAGAAG | 0.0256
47 | GATGATCC | -0.0343
48 | CTATAGAA | 0.0102
49 | AGGTGGTG | -0.0259
50 | CTAACCGC | 0.0487
51 | CCGGAGAG | -0.124
52 | ATCGTAGA | 0.141
53 | CTAACTCC | -0.145
54 | TTATCGAA | 0.078
55 | CTTACGTA | 0.489
56 | AACGAAAA | 0.135
57 | AACGAGAA | 0.171
58 | TAGTCGGA | -0.0783
59 | ACCCGAGT | -0.271
60 | ATAAGAAA | 0.254
61 | ACTAACCG | 0.00032
62 | TACCTACA | 0.131
63 | AACTTTCC | -0.146
64 | AAGTGAAG | -0.126
65 | AAACGGCT | -0.219
66 | ATGGAGTG | -0.13

Row | Sequence | PBM E-score
67 | ACTATCAT | 0.153
68 | AGGTTAGA | -0.137
69 | AGTTCACA | 0.0898
70 | TCAATCAA | 0.135
71 | ATCCCCCC | -0.402
72 | ACCGCAAC | 0.0766
73 | CGTATATC | 0.319
74 | CGTGCCTA | -0.0135
75 | CTCAGGCC | -0.15
76 | CTTTTCCA | -0.22
77 | AGTACTCG | 0.0859
78 | ACTCCGCT | -0.299
79 | CGCCAGGC | -0.227
80 | GACTCCCA | -0.398
81 | GCGTTATA | 0.194
82 | GGGTCGTA | 0.0494
83 | GACACGAA | 0.0595
84 | AGCTCTAG | -0.194
85 | GAATCAAC | 0.0911
86 | CATGGGTC | -0.134
87 | TACGTGCA | 0.423
88 | CACATCAA | 0.0965

Row | Sequence | PBM E-score
89 | AGAAGGAT | -0.0487
90 | CCTTGAAG | -0.0857
91 | ACCCCATA | -0.124
92 | ACAGTCCC | -0.27
93 | TAGGGGAA | -0.175
94 | CCGAATCA | -0.0167
95 | GCATGCAC | 0.115
96 | GCCATTAA | 0.11
97 | ACGCCAGC | 0.0567
98 | TAGCCTCA | -0.107
99 | CTCAATCC | 0.058
100 | GGCGACTA | -0.169
101 | CTCCCCTA | -0.21
102 | ATTTTACA | 0.108
103 | CGCTTGCA | -0.102
104 | CGCCGCAG | -0.311
105 | CAACGGAC | -0.0847
106 | ATGGGCCC | -0.295
107 | CTTCGTGC | 0.0593
108 | AGGGCGTC | -0.131
109 | TCCCGACA | -0.139
110 | AAAGAATA | 0.193
